Among all 1,200 compounds or so, about 10 (0.8%) were called active. About 4% were inconclusive and are not listed. The call rests on the fitted dose curve; in most records, active means well fitted inhibition curve with a large enough effect; inconclusive means small, poorly fitted or top-dose-only effect; inactive means no such curve, though single readings can be large or run the other way. The list shows a part of the results.
assay: qHTS Assay to Find Inhibitors of Chronic Active B-Cell Receptor Signaling: Hit Validation in OCI-Ly3 Assay; conditions: OCI-Ly3 IkB-luciferase reporter, Chroma-Glo luminescence, 4 h; series mostly up to 46.1 µM; activity change, negative = inhibition: at the top concentration
Summary of the method: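 Readout is dual-colour luminescence: IkB-alpha-luciferase fusion (green) against unfused luciferase (red), plus their ratio, scaled between basal cells and 10 uM MG-132. OCI-Ly3 cells, 0.5% FBS IMDM, compound with doxycycline (80ng/ml solution), 4 hrs at 37C; curves fitted and classed.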
On the % scale 0 is the no-effect control and ±100 the full control effect.

**Q.** Which “activity change, negative = inhibition” value does the source give for COCCCn1c(N)c(-c2nc3ccccc3n2C)c2nc3ccccc3nc21 here?
**A.** The value was inactive: -15.6%.

**Q.** For COc1ccc(/C=N/n2c(=S)n(C)c3ccccc32)cc1OC, which “activity change, negative = inhibition” value is on record?
**A.** Its value is inactive: -0.584%.

**Q.** Which “activity change, negative = inhibition” value does the source give for COc1ccc(C2=Nn3c(nnc3-c3ccccn3)SC2)cc1OC here?
**A.** The value was inactive: 0.19%.

**Q.** With C/C(=N\NC(=S)NCCc1ccccc1)c1cccc(Br)c1 as the compound, how does the “activity change, negative = inhibition” value read?
**A.** The value was inactive: -2.39%.

**Q.** For COC1=CC(=O)CC(C)C12Oc1c(Cl)c(OC)cc(OC)c1C2=O (stereo not drawn), which “activity change, negative = inhibition” value is on record?
**A.** Its value is inactive: -0.642%.

**Q.** With COc1cc(C)nc(NCc2ccccc2)n1 as the compound, how does the “activity change, negative = inhibition” value read?
**A.** Its value is inactive: 0.488%.

**Q.** Which “activity change, negative = inhibition” value does the source give for COc1cc(OC)c2c(-c3cccc(-c4ccc(OC)c(F)c4)c3)cc(=O)oc2c1 here?
**A.** The value was inactive: -1.85%.

**Q.** With N#C/C(=C\c1ccc(Cl)cc1)c1nc2ccccc2o1 as the compound, how does the “activity change, negative = inhibition” value read?
**A.** Its value is inactive: -0.402%.

**Q.** Which “activity change, negative = inhibition” value does the source give for COc1ccccc1NS(=O)(=O)c1ccc(-c2cnc(C3CC3)o2)cc1 here?
**A.** The value was inactive: -6.85%.

**Q.** Which “activity change, negative = inhibition” value does the source give for CCc1ccc(/C=N/NC(=O)c2cc(C3CC3)nc3ccccc23)s1 here?
**A.** The value was inactive: -6.48%.

**Q.** For CCOC(=O)c1c(C)c(C(=O)OCC)n(C)c1C, which “activity change, negative = inhibition” value is on record?
**A.** Its value is inactive: -0.824%.

**Q.** Which “activity change, negative = inhibition” value does the source give for N#CCN1C(=S)N=C(Nc2cccc(Cl)c2)C12CCCCC2 here?
**A.** The value was inactive: -1.04%.

**Q.** With COc1ccc(-c2cc(C(=O)NN)[nH]n2)cc1OC as the compound, how does the “activity change, negative = inhibition” value read?
**A.** Its value is inactive: -0.116%.

**Q.** Which “activity change, negative = inhibition” value does the source give for COc1cc2c(cc1O)CC[C@@H]1[C@@H]2CC[C@]2(C)[C@@H](O)CC[C@@H]12 here?
**A.** Its value is inactive: -2.78%.

**Q.** Which “activity change, negative = inhibition” value does the source give for COc1ccc(C(=O)N/N=C/c2ccccc2OC(=O)c2ccccc2)cc1 here?
**A.** The value was inactive: -18.9%.

**Q.** With COc1ccc(/C=N/NC(=O)COc2ccccc2-c2ccccc2)cc1 as the compound, how does the “activity change, negative = inhibition” value read?
**A.** Its value is inactive: -4.37%.

**Q.** For CCCCN1C(=O)N(C)C2C1N(C)C(=O)N2CCCC (stereo not drawn), which “activity change, negative = inhibition” value is on record?
**A.** Its value is inactive: -0.446%.

**Q.** With COc1ccc(-c2nn(C)c(=O)c3ccccc23)cc1CNS(C)(=O)=O as the compound, how does the “activity change, negative = inhibition” value read?
**A.** Its value is inactive: -0.456%.

**Q.** Which “activity change, negative = inhibition” value does the source give for CCCCC[C@H](O)/C=C/[C@@H]1[C@@H](C/C=C\CCCC(=O)O)[C@H]2CO[C@@H]1C2 here?
**A.** The value was inactive: -0.516%.

**Q.** With COc1cc(C2C(C#N)=C(N)Oc3cc(N(C)C)ccc32)cc2c1OCO2 (stereo not drawn) as the compound, how does the “activity change, negative = inhibition” value read?
**A.** The value was inactive: -6.66%.

**Q.** Which “activity change, negative = inhibition” value does the source give for CC(C)(C)C(=O)NC(=S)NNC(=O)c1ccc(-c2ccccc2)cc1 here?
**A.** The value was inactive: -6.88%.

**Q.** Which “activity change, negative = inhibition” value does the source give for CN(C)c1ccc2c(c1)OC(N)=C(C#N)C2c1cccc(F)c1 (stereo not drawn) here?
**A.** Its value is inactive: -12.2%.

**Q.** For NNC(=O)c1[nH]c2ccc(Br)cc2c1-c1ccccc1, which “activity change, negative = inhibition” value is on record?
**A.** The value was inactive: -2.41%.

**Q.** Which “activity change, negative = inhibition” value does the source give for O=c1cc(-c2ccccc2)[nH]c2ccccc12 here?
**A.** Its value is inactive: -4.49%.

**Q.** With CCOC(=S)SCC(=O)Nc1nc(-c2ccc(Br)cc2)cs1 as the compound, how does the “activity change, negative = inhibition” value read?
**A.** The value was inactive: -1.99%.

**Q.** Which Potency does the source give for Cc1ccc(S(=O)(=O)Cc2ccc(C(=O)N3CCN(c4cccc(C)c4C)CC3)o2)cc1 here?
**A.** Its Potency is “inactive”.

**Q.** For CCCOc1ccccc1C1CC(=O)Nc2cc3c(cc21)OCO3 (stereo not drawn), which “activity change, negative = inhibition” value is on record?
**A.** Its value is inactive: -22.2%.

**Q.** For Cc1cc2nc(/C=C/c3cccnc3)[nH]c2cc1C, which “activity change, negative = inhibition” value is on record?
**A.** Its value is inactive: -2.38%.

**Q.** For N#CC(C#N)=C(N)CSc1cccc[n+]1[O-], which “activity change, negative = inhibition” value is on record?
**A.** Its value is inactive: -0.419%.

**Q.** For NNC(=O)c1[nH]c2ccc([N+](=O)[O-])cc2c1-c1ccccc1, which “activity change, negative = inhibition” value is on record?
**A.** The value was inactive: -0.543%.

**Q.** For COc1cc(C2Nc3ccccc3C(=O)N2c2ccc(Cl)cc2)c(Cl)cc1OCC(=O)O (stereo not drawn), which “activity change, negative = inhibition” value is on record?
**A.** The value was inactive: 0.262%.

**Q.** With Cc1ccc(C)c(NS(=O)(=O)c2ccc(-c3cnc(C4CC4)o3)cc2)c1 as the compound, how does the “activity change, negative = inhibition” value read?
**A.** Its value is inactive: -9.18%.

**Q.** Which “activity change, negative = inhibition” value does the source give for Oc1ccc(-c2nc3cnccn3c2Nc2ccc3c(c2)OCCO3)cc1 here?
**A.** Its value is inactive: -3.97%.

**Q.** Which “activity change, negative = inhibition” value does the source give for CCOc1ccc(N(CC(=O)Nc2ccccc2OCC)S(=O)(=O)c2c(C)noc2C)cc1 here?
**A.** The value was inactive: -7.77%.

**Q.** Which “activity change, negative = inhibition” value does the source give for Cc1cc(=O)c(C(=O)Nc2cccc(N3CCCC3=O)c2)nn1-c1ccccc1Cl here?
**A.** Its value is inactive: -0.879%.

**Q.** For COc1cc([C@@H]2c3cc4c(cc3[C@H](O)[C@H]3COC(=O)[C@H]23)OCO4)cc(OC)c1OC, which “activity change, negative = inhibition” value is on record?
**A.** The value was inactive: -3.51%.

**Q.** Which “activity change, negative = inhibition” value does the source give for CCOC(=O)C(C)N1C(=O)S/C(=C/c2ccc3c(c2)n(C)c(=O)n3C)C1=O (stereo not drawn) here?
**A.** Its value is inactive: -1.78%.

**Q.** Which “activity change, negative = inhibition” value does the source give for COc1ccc2nc(NC(=S)NC(=O)c3ccco3)sc2c1 here?
**A.** The value was inactive: 0.35%.

**Q.** With Oc1ccc(NCc2cccc(OCc3ccccc3)c2)cc1 as the compound, how does the “activity change, negative = inhibition” value read?
**A.** The value was inactive: -2.83%.

**Q.** With S=c1c2c(nc3nc[nH]n13)CCC2 as the compound, how does the “activity change, negative = inhibition” value read?
**A.** The value was inactive: -0.796%.

**Q.** For COc1cc(OC)cc(C(=O)N2CC(=O)Nc3ccccc32)c1, which “activity change, negative = inhibition” value is on record?
**A.** The value was inactive: -0.837%.

**Q.** With NC(=S)n1[nH]c(-c2ccc([N+](=O)[O-])cc2)c(N=Nc2cccc(Cl)c2)c1=O as the compound, how does the “activity change, negative = inhibition” value read?
**A.** The value was inactive: -0.38%.

**Q.** With CCCc1nnc(NC(=O)CCC(=O)NCCc2ccc(OC)c(OC)c2)s1 as the compound, how does the “activity change, negative = inhibition” value read?
**A.** Its value is inactive: -0.454%.

**Q.** Which “activity change, negative = inhibition” value does the source give for Cc1ccc(NC(=S)NC(=O)C2CC2)cc1Cl here?
**A.** The value was inactive: -5.51%.

**Q.** With Cc1ccc(N=Nc2c(C)[nH]n(C(N)=S)c2=O)cc1 as the compound, how does the “activity change, negative = inhibition” value read?
**A.** The value was inactive: 0.657%.

**Q.** Which “activity change, negative = inhibition” value does the source give for COCCNC(=S)N/N=C(\C)c1ccc(Cl)c(Cl)c1Cl here?
**A.** Its value is inactive: -2.44%.

**Q.** With COc1cc(OC)cc(C(=O)NCC(=O)Nc2ccc(-c3ccccc3)cc2)c1 as the compound, how does the “activity change, negative = inhibition” value read?
**A.** Its value is inactive: -4.77%.

**Q.** Which “activity change, negative = inhibition” value does the source give for Cc1ccc(Sc2c(CO)c(-c3ccccc3)nn2C)cc1 here?
**A.** The value was inactive: -4.65%.

**Q.** With CCCCC[C@H](O)/C=C/[C@H]1CCC(=O)[C@@H]1CCCCCCC(=O)N1CCCCC1CO (stereo partly drawn) as the compound, how does the “activity change, negative = inhibition” value read?
**A.** Its value is inactive: -4.81%.

**Q.** For Nc1ncnc2c1ncn2C1OC(C(=O)NC2CC2)C(O)C1O (stereo not drawn), which “activity change, negative = inhibition” value is on record?
**A.** The value was inactive: -1.22%.

**Q.** With O=C(NC(=S)NC1CCSC1=O)c1ccccc1 (stereo not drawn) as the compound, how does the “activity change, negative = inhibition” value read?
**A.** The value was inactive: -1.04%.

**Q.** With Cc1ccc(C(=O)Oc2ccc(Cl)c3cccnc23)cc1[N+](=O)[O-] as the compound, how does the “activity change, negative = inhibition” value read?
**A.** Its value is inactive: -14.9%.

**Q.** With COc1cc(OC)c2c(-c3cccc(-c4sccc4C(C)=O)c3)cc(=O)oc2c1 as the compound, how does the “activity change, negative = inhibition” value read?
**A.** Its value is inactive: -5.56%.

Source: PubChem BioAssay AID651567 (National Center for Advancing Translational Sciences (NCATS), 2012)
